Reference: the supplement of paper PMC11417369
Some of the results follow.

The sequences below were run on PfAP2-HC AP2 domain (GST-tagged) (assay: gcPBM binding intensity (ln(normalized median fluorescence intensity)); higher = stronger DNA binding).
Method in brief: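 Binding intensity is the highest Masliner-normalised natural-log median intensity over replicate spots in either probe orientation. To obtain it, GST-tagged P. falciparum DNA-binding domains made in E. coli were incubated for 1 h on an Agilent 4 × 180k array of primer-extended double-stranded 36-bp intergenic genomic probes plus negative controls. Detection used Alexa488 anti-GST antibody with scanning at 488 nm.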

Going from “TATATATATATATATGTACACACATCAATCATATTA [CACACA_site8594]” to “GAATAAATAATTAACACACACAATCTTTTTTTTTTT [CACACA_site3140]”, the “gcPBM binding intensity (ln)” value rises from 9.75 to 10.5.

Going from “AAAAAAAAAATAAAATAAAATATATTATATATATTA [GTGCAC_negctrl_site431]” to “CCACAGGATTGGTTCAAACACACATATTATATGACT [CACACA_site661]”, the “gcPBM binding intensity (ln)” value rises from 9.5 to 9.81.

Going from “TATTTTTTTTTTTTTTGTACACATAATTGTAATCGT [XGTACX_site8415]” to “CATATAAAAATGTGCACACACACACCGATATATATT [CACACA_site4940]”, the “gcPBM binding intensity (ln)” value rises from 9.67 to 10.6.

Compared with “TGTACGAGTCGTAGAGTGCAGTCTGGAGAAAAGTAC [GTGCAC_site9683]”, “TATATATATATATATACACACTTGTGCAGAATATTA [CACACA_site5257]” is higher in “gcPBM binding intensity (ln)” value: 9.65 for the first, 9.79 for the second.

First: TATAAATGTGTATGCGCATGTAAAAATATAATTTAT [TGCATGCA_site750]
Second: GTAAATAATAAACACCGTACATGGTATAATTCAATG [XGTACX_site3655]
The “gcPBM binding intensity (ln)” value of the first is lower: 9.78 for the first, 9.87 for the second.

Compared with “AAATAAATAAATAGACGTACAAAAATATTATACATT [XGTACX_site6776]”, “AATAATGAAAAAATGAATAAAATTACTATATAATTC [XGTACX_negctrl_site457]” is lower in “gcPBM binding intensity (ln)” value: 9.89 for the first, 9.63 for the second.

Going from “GATATGATGTGTTTGGTAGTTTTTGATGTTGGCATG [GTGCAC_negctrl_site506]” to “ACAAAAAATTAATGAGAAATGGAATAATAAGTTATA [GTGCAC_negctrl_site321]”, the “gcPBM binding intensity (ln)” value falls from 9.73 to 9.57.

Going from “GGATATTAATAAATATGTACATATGTAGATTTATTA [XGTACX_site554]” to “AAGAAAAAAAAAAAAACACACATATATATATATATA [CACACA_site2027]”, the “gcPBM binding intensity (ln)” value rises from 9.8 to 10.2.

Going from “ATATATAAATATATATGTACATAAATATATATCTTT [XGTACX_site6910]” to “TGTATACCTTAATATACACACATACCTATATTTATA [CACACA_site6746]”, the “gcPBM binding intensity (ln)” value rises from 9.69 to 9.8.

Compared with “TATAAATAGAGGAAGCGTACATATATATATATATAT [XGTACX_site4993]”, “GAACTCATTACAAAGTGTACAAATTAAATAAATGGT [XGTACX_site3995]” is lower in “gcPBM binding intensity (ln)” value: 10.2 for the first, 9.68 for the second.

Compared with TTTTTCTTATTTGGATTGCACTACATATATATATAT, “AGGTGCTTAATATATACACACATACAGATATATATA [CACACA_site5552]” is lower in “gcPBM binding intensity (ln)” value: 9.96 for the first, 9.8 for the second.

Going from “AAAATTTTTTGAAATAGTACTTTTTTATATATATAT [XGTACX_site2634]” to “ATAAGGTTACAACAAACACACAAAGGAATATACACA [CACACA_site7840]”, the “gcPBM binding intensity (ln)” value rises from 9.57 to 10.3.

Compared with “TATAAATTTATATATGCATGTCAGAAAAAAAAGTAA [TGCATGCA_site414]”, “CAACAAAATAAACACACACACACAAACACAAAAAAA [CACACA_site5806]” is higher in “gcPBM binding intensity (ln)” value: 9.61 for the first, 11.4 for the second.

First: GTGAGTGAAATATGCAAACACACACCCGAAAAATGT [CACACA_site3197]
Second: TATGATTTTAATGAAACACACAATTTTATGTTAATA [CACACA_site311]
The “gcPBM binding intensity (ln)” value of the first is higher: 10.2 for the first, 9.56 for the second.

Going from “TATAAAGGTATACAAAGTACAAAATACATATATACT [XGTACX_site6431]” to “TAAAGTTTTTCCTATCTATATTTATATTATAAATGA [XGTACX_negctrl_site20]”, the “gcPBM binding intensity (ln)” value falls from 9.81 to 9.35.

Going from “TTTAATATTATTATTTTACACACTTTTTTCCTTTTA [CACACA_site8780]” to “CAAATAATATTATGAAGTACTTCAAATTTTGAAAGA [XGTACX_site2530]”, the “gcPBM binding intensity (ln)” value falls from 9.81 to 9.59.

First: TCTTATAAACTCTGCACACATAATATATTAAATGAG [CACACA_site1936]
Second: AATATAGGTATATCCACACACATATTTATATTTATA [CACACA_site6867]
The “gcPBM binding intensity (ln)” value of the first is lower: 9.7 for the first, 10.1 for the second.

First: TGTGTATAAGTCACTTGTACTAGTAGTAAAAAAAAA [XGTACX_site4341]
Second: TAATATATGTTATATACACACATATAAATATAAATA [CACACA_site6339]
The “gcPBM binding intensity (ln)” value of the first is lower: 9.64 for the first, 9.67 for the second.

Going from “TGAAGTATAATTTATCTAATATGTTATATTTTATTT [TGCATGCA_negctrl_site56]” to “ATATTAATTTCTCATGCATGTTCTACCCAATTGTAA [TGCATGCA_site355]”, the “gcPBM binding intensity (ln)” value rises from 9.55 to 9.73.

Going from “AAAAAAAAAAAAAATTCACACAAGACTACTACATTT [CACACA_site4195]” to TTTTGTTATTATGAAGTGCATTTATGTTCATGTCTA, the “gcPBM binding intensity (ln)” value falls from 9.78 to 9.68.

Compared with “AAAATCTAATATAATGCACACATAAAAAAAAATCAA [CACACA_site9211]”, “ACCCTTTTATATAAGAGTACAAACGTATTATTAAAT [XGTACX_site2221]” is lower in “gcPBM binding intensity (ln)” value: 9.82 for the first, 9.52 for the second.

Compared with “AATATTAAAAACAAAACACACAAAAAAAAATAAAAT [CACACA_site702]”, “ATATATGACTAATAAAGTACATACTTCATATAATTA [XGTACX_site6699]” is lower in “gcPBM binding intensity (ln)” value: 10.1 for the first, 9.7 for the second.

Going from TATATTATATATATACTGCACTGTTTTACAAAATTA to “AACGTGTATTTATATTGTACACATTCATACATCAAA [XGTACX_site3644]”, the “gcPBM binding intensity (ln)” value rises from 9.63 to 9.64.

Compared with “GTAGTGGTTGAATATACACACATATATATATATATA [CACACA_site2651]”, “AGATAATAGGTTACTTGTACATATAAATAAATATAT [XGTACX_site158]” is lower in “gcPBM binding intensity (ln)” value: 9.73 for the first, 9.65 for the second.

First: CTTGTCATTTGGCACACACACATGTATAGGTTATTA [CACACA_site5656]
Second: TATATAAATAAACACACACACACCTTATAATTATTA [CACACA_site9345]
The “gcPBM binding intensity (ln)” value of the first is lower: 10.2 for the first, 10.5 for the second.

Going from “AACAGATAATATAAAAAAAAAAAAAAAAATAATTAA [GTGCAC_negctrl_site69]” to “TTTTAGTTATTGTATTATTATTAATATATAATATCT [CACACA_negctrl_site1528]”, the “gcPBM binding intensity (ln)” value rises from 9.48 to 9.7.

First: CTAAAATGTAAAAACGCACACATAATATTATAAAAA [CACACA_site2788]
Second: AAAGCATGTTAATATGTATAAATACTGATCATTCAC [GTGCAC_negctrl_site576]
The “gcPBM binding intensity (ln)” value of the first is higher: 10.1 for the first, 9.7 for the second.

Going from “TTTTTTTTTTATTAATGTACAAGATATATAATGTTA [XGTACX_site4809]” to “TATAATATAAAAATGAGTACATAGATAATAATATTT [XGTACX_site2376]”, the “gcPBM binding intensity (ln)” value rises from 9.44 to 9.82.

“TATATAGTAAATATTTGTACATAATAAAATATATGT [XGTACX_site7873]” was tested, and the “gcPBM binding intensity (ln)” value was 9.77.
